Measurements from PubChem BioAssay AID2101 (National Center for Advancing Translational Sciences (NCATS), 2009).
Screen size: about 330,000 compounds; about 300 (0.091%) were called active. This list was built around the results that the source calls inconclusive (neither active nor inactive); the mix of calls is not that of the screen. Calls follow the shape of the dose curve; as a rule, active = well fitted inhibition curve with a large enough effect; inconclusive = small, poorly fitted or top-dose-only effect, or effect the other way, or another doubt; inactive = no such curve, though single readings can be large or run the other way. Potencies of inconclusive entries are left out as doubtful fits.

target: Lysosomal acid glucosylceramidase (Homo sapiens) (UniProt P04062); experiment: qHTS Assay for Inhibitors and Activators of N370S glucocerebrosidase as a Potential Chaperone Treatment of Gaucher Disease; conditions: N370S GC spleen homogenate, 4MU-glucoside fluorescence; activity change, negative = inhibition: at 59.4 µM (top of the series) unless noted;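 as to activity change, negative = inhibition: 0% = full enzyme activity and -100% = no enzyme basal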
Potency is read from the fitted curve at half-maximal effect.

Row | Structure (SMILES) | Potency | activity change, negative = inhibition
1 | CCOc1ccc(-c2nc(C#N)c(N3CCCCCC3)o2)cc1 | inconclusive [activator, partial curve] | 
2 | O=C(Nc1ccc2c(c1)nc1n2CCN(Cc2ccccc2)C1)NC1CCCCC1 |  | inactive: 1.48%
3 | CCCCc1nc(N2CCOCC2)c(C#N)c2c1COC(C)(C)C2 |  | inactive: 10.1%
4 | Nc1ccc2nc(Cc3ccccc3)[nH]c2c1 | inconclusive [inhibitor, single point] | 
5 | NNc1nc2sc3c(c2c(=O)n1-c1ccccc1)CCCC3 | inconclusive [activator, partial curve] | 
6 | CN(C)CC(=O)c1ccc(-c2ccccc2)cc1 | inconclusive [inhibitor, partial curve, poor fit] | 
7 | CCC(C)NCC(=O)Nc1ccc(-c2nc3cc(NC(=O)CNC(C)CC)ccc3o2)cc1 (stereo not given) |  | inactive: 0.472%
8 | O=C(/C=C/c1ccc(O)cc1)c1ccccc1 | inconclusive [inhibitor, partial curve, poor fit] | 
9 | CC(C)OCCCn1c(=O)c2ccccc2n2c(CCC(=O)NC3CCN(Cc4ccccc4)CC3)nnc12 |  | inactive: -2.66%
10 | Cc1cccc(NC(=O)Cc2noc3ccccc23)c1 |  | inactive: -6.15%
11 | CCOC(=O)CC(=O)CSc1nc2c(C)c(C)ccc2cc1C | inconclusive [activator, partial curve] | 
12 | CCOC(=O)c1c(NC(=O)CC2SC(N)=NC2=O)sc(C)c1C (stereo not given) | inconclusive [inhibitor, single point] | 
13 | COc1ccc(OC)c(S(=O)(=O)NCCOC23CC4CC(CC(C4)C2)C3)c1 | inconclusive [inhibitor, partial curve] | 
14 | CN(CCOc1ccc(Br)cc1)CC(O)c1ccccc1 (stereo not given) | inconclusive [inhibitor, partial curve, poor fit] | 
15 | CCOc1ccc(/C=C/c2nc(C#N)c(NCCCOC)o2)cc1 | inconclusive [activator, partial curve] | 
16 | Clc1ccc(-c2nnc(-c3ccco3)nc2N2CCCCC2)cc1 | inconclusive [activator, partial curve] | 
17 | COc1ccc(N2C(=O)N(Cc3cccc(F)c3)c3ccccc3S2(=O)=O)cc1 | inconclusive [activator, partial curve] | 
18 | O=C(CNS(=O)(=O)c1cccc(Cl)c1)Nc1ccc(-c2nc3ccccc3s2)cc1 |  | inactive: 2.65%
19 | Cc1c(CN2CCC(CO)(Cc3cccc(C(F)(F)F)c3)CC2)c2ccccc2n1C | inconclusive [inhibitor, single point] | 
20 | CC[C@@H]1C(c2cccc(Cl)c2)=NN(c2ccc(Br)cc2)[C@H]1C(=O)N1CCOC1=O | inconclusive [activator, single point] | 
